Substitutions are numbered along the chain they refer to. These are yes or no findings as the source states them, for the method shown. In cells and extracts the contact can be indirect. Some binding calls cover weakened binding; strength is not graded here. Blank lines part the entries; values can stand above or below the molecule they belong to.
Assays:
[1] = target: T1, MDMX (co-immunoprecipitation with FOXO1, Fig. S3D) (UniProt O15151); test: co-IP; co-immunoprecipitation of MDMX and FOXO1 (Fig. S3D); cells not given; lysate with specific antibody and protein A/G beads at 4 °C overnight, Western blot
T1 sequence: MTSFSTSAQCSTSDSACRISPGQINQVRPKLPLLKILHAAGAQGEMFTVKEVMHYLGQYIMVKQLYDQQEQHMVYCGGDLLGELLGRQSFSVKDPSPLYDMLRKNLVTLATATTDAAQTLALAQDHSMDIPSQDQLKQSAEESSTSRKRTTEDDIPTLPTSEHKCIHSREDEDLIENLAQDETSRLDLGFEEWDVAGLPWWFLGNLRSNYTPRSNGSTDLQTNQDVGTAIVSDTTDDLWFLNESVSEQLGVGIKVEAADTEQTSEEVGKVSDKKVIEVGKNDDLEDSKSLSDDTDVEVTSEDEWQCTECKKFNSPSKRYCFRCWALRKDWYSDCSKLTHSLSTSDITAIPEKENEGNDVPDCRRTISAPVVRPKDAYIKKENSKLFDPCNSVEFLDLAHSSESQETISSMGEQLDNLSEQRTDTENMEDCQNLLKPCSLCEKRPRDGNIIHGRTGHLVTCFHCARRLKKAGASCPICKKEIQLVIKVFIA

By UniProt entry, the sequences of proteins in these tests, tags left out. Where a name states a change or a piece, a line headed by the entry shows the natural chain unless it says otherwise.
UniProt Q12778: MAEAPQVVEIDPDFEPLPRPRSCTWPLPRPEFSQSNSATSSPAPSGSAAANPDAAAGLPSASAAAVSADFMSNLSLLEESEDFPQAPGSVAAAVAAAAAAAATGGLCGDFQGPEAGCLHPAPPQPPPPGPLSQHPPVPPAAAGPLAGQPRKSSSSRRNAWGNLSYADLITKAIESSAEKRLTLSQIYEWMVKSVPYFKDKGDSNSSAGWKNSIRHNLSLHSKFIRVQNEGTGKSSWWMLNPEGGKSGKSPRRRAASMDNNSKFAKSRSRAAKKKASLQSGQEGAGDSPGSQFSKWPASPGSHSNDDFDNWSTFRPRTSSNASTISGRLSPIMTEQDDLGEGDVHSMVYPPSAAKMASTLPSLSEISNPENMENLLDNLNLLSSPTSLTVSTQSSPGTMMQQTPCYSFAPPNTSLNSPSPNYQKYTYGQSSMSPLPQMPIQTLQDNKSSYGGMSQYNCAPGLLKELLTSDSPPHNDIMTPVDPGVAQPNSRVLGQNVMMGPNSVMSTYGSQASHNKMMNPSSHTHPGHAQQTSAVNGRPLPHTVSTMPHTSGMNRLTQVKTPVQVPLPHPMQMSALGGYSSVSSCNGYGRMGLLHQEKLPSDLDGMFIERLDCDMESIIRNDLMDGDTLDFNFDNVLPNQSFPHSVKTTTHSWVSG

[2] = target: T2, MDMX (endogenous, 293T) (human (endogenous in 293T)) (UniProt O15151); test: co-IP; 293T cells, endogenous or transfected proteins (Fig. 5D, S4B, 5F, 6C); specific antibody and protein A/G beads at 4 °C overnight, Western blot
T2 sequence: T1 sequence

full-length MDMX = target: T3, full-length MDMX (UniProt O15151); test: as above
T3 sequence: T1 sequence

[3] = target: FOXO1 (transfected, Huh7) (UniProt Q12778); test: co-IP; Huh7 cells co-transfected with MDMX and FOXO1 (Fig. 5C); specific antibody and protein A/G beads at 4 °C overnight, Western blot
MDMX-1-361 = target: T4, MDMX-1-361 (UniProt O15151); test: co-IP; 293T cells, endogenous or transfected proteins (Fig. 5D, S4B, 5F, 6C); specific antibody and protein A/G beads at 4 °C overnight, Western blot
T4 sequence: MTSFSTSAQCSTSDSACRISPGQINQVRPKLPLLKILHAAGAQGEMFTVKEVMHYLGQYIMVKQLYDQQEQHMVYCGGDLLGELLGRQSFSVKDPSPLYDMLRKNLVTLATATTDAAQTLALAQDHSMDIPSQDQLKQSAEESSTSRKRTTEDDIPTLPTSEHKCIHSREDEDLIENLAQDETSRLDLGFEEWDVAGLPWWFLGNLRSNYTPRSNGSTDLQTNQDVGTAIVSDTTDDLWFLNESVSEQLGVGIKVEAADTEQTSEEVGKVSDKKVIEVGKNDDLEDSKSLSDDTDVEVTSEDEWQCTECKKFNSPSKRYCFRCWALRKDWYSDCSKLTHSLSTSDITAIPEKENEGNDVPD

[4] = target: FOXO1 (ectopic expression, 293T) (UniProt Q12778); test: as above
MDMX-101-361 = target: T5, MDMX-101-361 (UniProt O15151); test: as above
T5 sequence: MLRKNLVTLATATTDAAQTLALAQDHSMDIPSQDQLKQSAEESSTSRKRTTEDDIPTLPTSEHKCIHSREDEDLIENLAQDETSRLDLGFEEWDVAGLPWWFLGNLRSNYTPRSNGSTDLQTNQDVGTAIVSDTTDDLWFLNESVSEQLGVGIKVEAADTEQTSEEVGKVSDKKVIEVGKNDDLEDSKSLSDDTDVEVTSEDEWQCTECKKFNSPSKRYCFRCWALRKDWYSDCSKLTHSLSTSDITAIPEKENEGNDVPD

MDMX-S367A = target: T6, MDMX-S367A (UniProt O15151); test: as above
T6 sequence: T1 sequence with S367A

MDMX-101–490 = target: T7, MDMX-101–490 (UniProt O15151); test: as above
T7 sequence: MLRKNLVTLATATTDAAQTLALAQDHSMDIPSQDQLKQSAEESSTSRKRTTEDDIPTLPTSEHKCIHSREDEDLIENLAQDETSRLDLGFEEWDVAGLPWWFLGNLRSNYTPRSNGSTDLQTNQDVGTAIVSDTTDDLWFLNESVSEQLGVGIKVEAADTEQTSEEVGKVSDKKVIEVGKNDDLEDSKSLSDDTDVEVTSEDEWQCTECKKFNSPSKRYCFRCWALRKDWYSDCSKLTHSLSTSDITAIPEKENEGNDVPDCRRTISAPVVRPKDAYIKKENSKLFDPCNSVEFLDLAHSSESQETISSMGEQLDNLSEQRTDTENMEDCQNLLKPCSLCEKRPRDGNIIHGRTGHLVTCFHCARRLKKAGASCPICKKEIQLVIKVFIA

MDMX-SG = target: T8, MDMX-SG (UniProt O15151); test: as above
T8 sequence: T1 sequence with W200S, W201G

B1: 14-3-3γ (endogenous, 293T) (protein, UniProt P61981 1-247)
chain: MVDREQLVQKARLAEQAERYDDMAAAMKNVTELNEPLSNEERNLLSVAYKNVVGARRSSWRVISSIEQKTSADGNEKKIEMVRAYREKIEKELEAVCQDVLSLLDNYLIKNCSETQYESKVFYLKMKGDYYRYLAEVATGEKRATVVESSEKAYSEAHEISKEHMQPTHPIRLGLALNYSVFYYEIQNAPEQACHLAKTAFDDAIAELDTLNEDSYKDSTLIMQLLRDNLTLWTSDQQDDDGGEGNN
- binding [2]: binds

B3: 14-3-3γ (Huh7) (protein, UniProt P61981 1-247)
chain: B1 chain
- binding [3]: binds

B4: 14-3-3γ (293T, Fig. 5F and 6C) (protein, UniProt P61981 1-247)
chain: B1 chain
- binding (MDMX-1-361): no binding
- binding [4]: binds
- binding (MDMX-101-361): no binding
- binding (full-length MDMX): binds
- binding (MDMX-S367A): no binding
- binding (MDMX-101–490): binds
- binding (MDMX-SG): binds

Next, values leading:

- binding [1]: no binding
Molecule: FOXO1 (co-immunoprecipitation with MDMX, Fig. S3D) (from UniProt Q12778 1-655)

- binding (full-length MDMX): binds
B2: 14-3-3γ (exogenous, 293T) (protein, UniProt P61981 1-247)
chain: B1 chain
